Assay results: PubChem BioAssay AID1454 (National Center for Advancing Translational Sciences (NCATS), 2008)
“And” between values parts separate entries of the source, which are not always exact repeats. Equal values may be shown once. The campaign covered roughly 130,000 compounds. About 550 (0.42%) were called active. Inconclusive results, whose numbers are uncertain, are shown with a selection of clear calls. Calls follow the shape of the dose curve; as a rule, active = well fitted inhibition curve with a large enough effect; inconclusive = small, poorly fitted or top-dose-only effect, or effect the other way; inactive = flat fitted curve, though single readings scatter. A potency beside an inconclusive call is a rough fit, not a confirmed value.

Test: qHTS Assay for Inhibitors of the ERK Signaling Pathway using a Homogeneous Screening Assay; Stimulation with EGF; also: nearly all actives have a fitted effect of over 55% in size;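 as to activity change, negative = inhibition: plate controls were stimulated vehicle wells for no effect and unstimulated vehicle basal for full effect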
Conditions: HEK293-V1b, EGF-stimulated phospho-ERK AlphaScreen; activity change, negative = inhibition: at the top concentration
Summary of the method: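 Stably V1b-transfected HEK293 cells; 30 min compound, then EGF 25 nM final for 5 min at 37C; 10 min lysis; phospho-ERK by AlphaScreen after 5 hr beads at room temperature.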
Potency is read from the fitted curve at half-maximal effect; tags tell the direction and shape of the fitted curve.

Row | Structure (SMILES) | Potency | activity change, negative = inhibition
1 | Cc1ccc(/C=C/C(=O)c2ccc(N3CCOCC3)cc2)s1 | inconclusive: 28.2 µM [inhibitor, single point] | 
2 | COc1ccc(C(=O)/C=C/Nc2ccc([N+](=O)[O-])cc2)cc1 |  | inactive: 0.522%
3 | Cc1cccn2c(CN(C)CC3CCCCO3)c(C(=O)N3CCCCC3)nc12 (stereo unspecified) | inconclusive: 35.5 µM [inhibitor, single point] | 
4 | COc1ccc(N2C(=O)C3C(C2=O)C(C(=O)c2ccccc2)N2CCCC32)cc1 (stereo unspecified) | inconclusive: 6.31 µM [inhibitor, single point] | 
5 | COc1ccc(C(=O)c2ccccc2)c(O)c1O | inconclusive: 12.6 µM [inhibitor, single point] | 
6 | COc1ccc(NC(=O)N2CC3(CCN(C(=O)c4ccc(OC)cc4)CC3)C2)cc1 |  | inactive: 20.5%
7 | Cc1ccc2cccc(S(=O)(=O)N3CCCc4ccccc43)c2n1 | inconclusive: 17.8 µM [inhibitor, partial curve] | 
8 | O=c1c(O[C@@H]2O[C@H](CO)[C@H](O)[C@H](O)[C@H]2O)c(-c2ccc(O)c(O)c2)oc2cc(O)cc(O)c12 | inconclusive: 39.8 µM [inhibitor, single point] | 
9 | CC1(C)O[C@@H]2[C@@H](O1)C(c1ccccc1)(c1ccccc1)OP(=O)(O)OC2(c1ccccc1)c1ccccc1 |  | inactive: -10.3%
10 | Nc1nc(Cl)nc2c1ncn2[C@@H]1O[C@H](CO)[C@@H](O)[C@H]1O | inconclusive: 14.1 µM [inhibitor, single point] | 
11 | COc1cc(C2CC(=O)Oc3c(C(CCN4CCOCC4)c4ccc(N(C)C)cc4)c(OC)cc(OC)c32)cc(OC)c1OC (stereo unspecified) | inconclusive: 22.4 µM [inhibitor, single point] | 
12 | Cn1c(C(O)c2ccc(Br)cc2)nc(Cl)c1Cl (stereo unspecified) | inconclusive: 1.78 µM [inhibitor, full curve, poor fit] | 
13 | CCC[C@@H]1C[C@@]1(CCC)[C@@H](NP(=O)(c1ccccc1)c1ccccc1)c1ccc(C(=O)OC)cc1 | inconclusive: 35.5 µM [inhibitor, single point] | 
14 | c1ccc(-c2cc3c(N4CCCCC4)ncnc3s2)cc1 | inconclusive: 14.1 µM [inhibitor, partial curve] | 
15 | O=C(/C=C/c1cc(Br)ccc1O)c1ccco1 | inconclusive: 39.8 µM [inhibitor, single point] | 
16 | CSc1ccc(C(=O)C2CCCN(Cc3cccn3-c3cccnc3)C2)cc1 (stereo unspecified) | inconclusive: 28.2 µM [inhibitor, partial curve] | 
17 | O=C(COC(=O)c1cccnc1Nc1cccc(C(F)(F)F)c1)NC1CCS(=O)(=O)C1 (stereo unspecified) | inconclusive: 39.8 µM [inhibitor, single point] | 
18 | Cc1cs/c(=N\N=C2CCCCC2)n1Cc1ccco1 | inconclusive: 25.1 µM [inhibitor, single point] | 
19 | COC(=O)C1=C(C)NC(C)=C(C(=O)OC(C)C)[C@H]1c1cccc2nonc12 |  | inactive: -1.41% [at 25.7 µM]
20 | O=C1OCC2OC(O)C(O)C(O)C2OC(=O)c2cc(O)c(O)c(O)c2-c2c(O)c(O)c3oc(=O)c4c(c(O)c(O)c5oc(=O)c2c3c54)-c2c1cc(O)c(O)c2O (stereo unspecified) | inconclusive: 12.6 µM [inhibitor, partial curve] | 
21 | O=C(Nc1ccc(C(F)(F)F)cc1)c1csc(-c2ccncc2)n1 | inconclusive: 39.8 µM [inhibitor, single point] | 

Row | Structure (SMILES) | Potency | activity change, negative = inhibition
22 | Cc1cccc2sc(N(CCN(C)C)C(=O)/C=C/c3cccs3)nc12 | inconclusive: 39.8 µM [inhibitor, single point] | 
23 | CCN(Cc1ccccc1)c1ccc(/C=N/N=C(N)N)cc1 | inconclusive: 14.1 µM [inhibitor, partial curve] | 
24 | CC(C)NC(=O)c1cc2c(s1)CCCC2 | inconclusive: 0.891 µM [activator, full curve, poor fit] | 
25 | Cc1ccc(C(=O)NNc2c3ccccc3nc3ccccc23)cc1 | inconclusive: 22.4 µM [inhibitor, single point] | 
26 | CC(C)(C)c1ccc(S(=O)(=O)Nc2ccc(Cc3ccncc3)cc2)cc1 |  | inactive: 4.32%
27 | CCCC(=O)Nc1ncnc2c1ncn2[C@@H]1O[C@H]2COP(=O)(O)O[C@@H]2[C@@H]1OC(=O)CCC |  | inactive: -2.58% [at 25.7 µM]
28 | O=C(CSc1ncc(C(=O)O)n1-c1ccc(F)cc1)NCc1ccc2c(c1)OCO2 | inconclusive: 0.562 µM [activator, full curve, poor fit] | 
29 | Cc1cc(C)n(-c2nc(NCCN(C)C)c3c4c(sc3n2)CCCC4)n1 | inconclusive: 31.6 µM [inhibitor, single point] | 
30 | CSc1ccccc1NC(=O)CN1c2ccccc2CC1C (stereo unspecified) | inconclusive: 3.98 µM [inhibitor, full curve, poor fit] | 
31 | O=C(O)CCN1C(=O)/C(=C/c2cn(-c3ccccc3)nc2-c2cccs2)SC1=S |  | inactive: 5.3%
32 | Cc1cc(NC(=O)Cn2cc(C(F)(F)F)cc(Cl)c2=O)no1 | inconclusive: 8.91 µM [inhibitor, partial curve] | 
33 | C[C@H]1C2=C3C(CC[C@H]4C(OCc5ccc(F)cc5C(F)(F)F)OC[C@](C)([C@@H]34)N(C(=O)OC(C)(C)C)C2)C2COC(=O)OCC21 (stereo partly specified) |  | inactive: -3.49%
34 | CCN1CCN(c2nc(Nc3cc(OC)ccc3OC)nc(Nc3cc(OC)ccc3OC)n2)CC1 | inconclusive: 31.6 µM [inhibitor, partial curve] | 
35 | CC/C=C\C/C=C\C/C=C\C/C=C\C/C=C\C/C=C\CCC(=O)O[C@H](COCCCCCCCCCCCCCCCC)COP(=O)([O-])OCC[N+](C)(C)C |  | inactive: -5.64%
36 | O=C(O)c1ccccc1-c1oc2cc(O)ccc2c(=O)c1Oc1ccccc1 |  | inactive: 9.99%
37 | CC(C)C[C@@H](CC(=O)N[C@@H](CCC(=O)O)CC(=O)O)NC(=O)[C@@H]1CCCC[C@H]1NC(=O)C[C@H](CCCN)NC(=O)C[C@H](Cc1c[nH]c2ccccc12)NC(=O)[C@@H]1CCCC[C@H]1N |  | inactive: -3.83%
38 | COc1cc(O)c(C(CCN2CCN(c3ccccc3)CC2)c2ccc3c(c2)OCO3)c(OC)c1 (stereo unspecified) | inconclusive: 10 µM [inhibitor, partial curve] | 
39 | Cc1sc2nc[nH]c(=S)c2c1-c1ccccc1 | inconclusive: 25.1 µM [inhibitor, single point] | 
40 | COc1ccccc1NS(=O)(=O)c1cccc(C(=O)N/N=C/c2c(C)nn(-c3ccccc3)c2N2CCCC2)c1 |  | inactive: 4.89%
41 | CCOC(=O)C/C(C)=N\Nc1ccc([N+](=O)[O-])cc1[N+](=O)[O-] | inconclusive: 15.8 µM [inhibitor, partial curve] | 
42 | O=[N+]([O-])c1ccc(/C=N/Nc2nc(N3CCCCCC3)nc(N3CCCCCC3)n2)o1 | inconclusive: 12.6 µM [inhibitor, partial curve] | 

Row | Structure (SMILES) | Potency | activity change, negative = inhibition
43 | CCc1ccc(C2=CC(c3cc(Br)ccc3F)n3ncnc3N2)cc1 (stereo unspecified) | inconclusive: 17.8 µM [inhibitor, single point] | 
44 | Fc1ccc(-c2nn(-c3ccccc3)cc2CNCc2ccccc2)cc1 | inconclusive: 39.8 µM [inhibitor, single point] | 
45 | CCOC(=O)C1CCN(c2nc(C)nc3c2oc2ccccc23)CC1 | inconclusive: 8.91 µM [inhibitor, partial curve] | 
46 | CSCCC(NS(=O)(=O)c1ccc(Cl)cc1)C(=O)OCC(=O)c1ccc(F)cc1 (stereo unspecified) | inconclusive: 35.5 µM [inhibitor, single point] | 
47 | O=C1c2cccc3c([N+](=O)[O-])ccc(c23)C(=O)N1Cc1cccnc1 | inconclusive: 31.6 µM [inhibitor, single point] | 
48 | COc1ccccc1Nc1ccc(S(=O)(=O)N2CCCCC2)cc1[N+](=O)[O-] | inconclusive: 25.1 µM [inhibitor, single point] | 
49 | c1ccc2c(CC3=NCCN3)cccc2c1 | inconclusive: 3.98 µM [activator, single point] and inconclusive: 31.6 µM [inhibitor, single point] | 
50 | CCc1c(C)nc2ncnn2c1Nc1ccc(C)c(C)c1 | active: 22.4 µM | 
51 | O=C(Nc1ccc(S(=O)(=O)N2CCOCC2)cc1)c1cc(-c2cc(Cl)ccc2O)n[nH]1 | inconclusive: 28.2 µM [inhibitor, single point] | 
52 | COc1ccc(NS(=O)(=O)c2csc(C(=O)Nc3ccccc3)c2)cc1 | inconclusive: 12.6 µM [inhibitor, partial curve] | 
53 | CCOc1ccc(-c2c(C(=O)N/N=C/c3ccccc3)nnn2-c2nonc2N)cc1 | inconclusive: 39.8 µM [inhibitor, single point] | 
54 | O=C(O)[C@@H]1C[C@H](C(=O)O)N1 |  | inactive: -11%
55 | Cc1nc2cc(F)ccc2n1C1CCN(C(=O)c2ccc(F)cc2F)CC1 | inconclusive: 22.4 µM [inhibitor, single point] | 
56 | CCOc1ccc(/C=C(/NC(=O)c2ccccc2Cl)C(=O)O)cc1 | inconclusive: 39.8 µM [inhibitor, single point] | 
57 | O=C(Nc1ccc(Cc2ccncc2)cc1)c1ccc(N2CCOCC2)c([N+](=O)[O-])c1 | inconclusive: 35.5 µM [inhibitor, single point] | 
58 | CCc1nnc(/N=C/c2c(O)n(-c3ccc(Cl)cn3)c(=O)c3ccccc23)s1 | inconclusive: 39.8 µM [inhibitor, single point] | 
59 | CCc1ccc2oc(-c3ccc(OC)cc3)cc(=Nc3c(C)n(C)n(-c4ccccc4)c3=O)c2c1 | inconclusive: 35.5 µM [inhibitor, single point] | 
60 | CCOc1ccc(S(=O)(=O)Oc2ccc3ccccc3c2)cc1 | inconclusive: 14.1 µM [activator, single point] | 
61 | O=C(COc1ccc(Br)cc1)Nc1ccccc1N1CCCC1 | inconclusive: 39.8 µM [inhibitor, single point] | 
